Source: the DeepSol protein solubility set

Assay: soluble on expression in E. coli; label from the status in PepcDB or PDB records

Row | Sequence | soluble on expression in E. coli
1 | ASPDWGYDDKNGPEQWSKLYPIANGNNQSPVDIKTSETKHDTSLKPISVSYNPATAKEIINVGHSFHVNFEDNDNRSVLKGGPFSDSYRLFQFHFHWGSTNEHGSEHTVDGVKYSAELHVAHWNSAKYSSLAEAASKADGLAVIGVLMKVGEANPKLQKVLDALQAIKTKGKRAPFTNFDPSTLLPSSLDFWTYPGSLTHPPLYESVTWIICKESISVSSEQLAQFRSLLSNVEGDNAVPMQHNNRPTQPLKGRTVRASF | soluble
2 | LAERGLRKVRVGKVTSDKMDKTVVVSIETSEKHPLYKKFVKRTYKLKAHDENNECKIGDIVKVMETRPLSKEKRWRVVEIIERAR | not soluble
3 | MGHHHHHHSHPMYRSRSWRRKYVRTPGGRVVVHFERKKPKIAHCAICGRPLNGIPRGRPVEMRKLPKTKKRPERPMPYLCPRCMRRVMKEQIRSQ | not soluble
4 | MIPADAPPPTNIGRTNTYGGDLISGPVIPRRERRQSSSMFNISQNRELQRLPAIKDADPSERETLFIQKLRQCCVVFDFANDALSDLKFKEVKRAALNELVDHVSGAPKGSLSDAVYPEAIGMFSTNLFRPLSPPTNPIGAEFDPDEDEPTLEAAWPHLQLVYEFFLRFLECPDFQSQVAKRYIDQNFILRLLMIMDSEDPRERDFLKTTLHRIYGKFLGHRAYIRKQINNIFYSFIYETERHNGIAELLEILGSIINGFALPLKEEHKTFLLRVLLPLHKVKSLSVYHPQLAYCVVQFIEKDSSLTEPVISGMLRFWPKQHSPKEVMFLNELEEVLDVIEPNEFQKIMTPLFSQIARCVSSPHFQVAERALYYWNNEYVMSLVADNARVIIPIMFPVLFKNSKSHWNKTIHGLIYNALKMFMEMNQKLFDECSQAYQKDRVQEKTLNEEKERIWNNIEKQAMGNPQYVEVKALFARFNPDEIISSRQQNGVDENMKTSTVLSKDEILKNAVGVSSMKNDMDFGPNHKQSDFPPDEQTTRALGEYKRHDPFLKKVTSTDEQ | not soluble
5 | MPITKEEKQKVMQEFARFPGDTGSTEVQVALLTLRINRLSEHLKVHKKDHHSHRGLLMMVGQRRRLLRYLQREDPERYRMLIEKLGIRG | soluble
6 | MTNSKGYRRGTRDMFSRPFRKHGVIPLSTYMRVFKIGDIVDIKGHGAVQKGLPYKAYHGKTGRIFNVTQHAVGVIVNKRVRGKILAKRVNVRIEHIHHSKCREDFLRRVKENERLLKEAKEKGQWVSLKRQPEQPKKAHFVKKLEEPIALAPIPYEFIALEHHHHHH | soluble
